Assay results from PubChem BioAssay AID624417 (National Center for Advancing Translational Sciences (NCATS), 2012).
“And” between values parts separate entries of the source, which are not always exact repeats. Identical values can stand only once. The whole screen tested about 410,000 compounds, of which about 6,400 (1.6%) were called active. Inconclusive means that the source gave no clear call. Such entries were picked first, then a sample of the others. The call rests on the fitted dose curve; in most records, active means well fitted inhibition curve with a large enough effect; inconclusive means small, poorly fitted or top-dose-only effect; inactive means no such curve, though single readings can be large or run the other way. A potency beside an inconclusive call is a rough fit, not a confirmed value.
Further: nearly all actives have a fitted effect of over 55% in size.
On the % scale 0 is the no-effect control and ±100 the full control effect; potency means the concentration at half of the fitted maximal effect; tags describe the fitted curve by direction and shape.

The compounds below were run against Glucagon-like peptide 1 receptor (Homo sapiens) (UniProt P43220) (assay: qHTS of GLP-1 Receptor Inverse Agonists (Inhibition Mode)). Settings: HEK293 GLP-1R CRE-luciferase, luminescence, 24 h, GLP-1R form is constitutively active; activity change, negative = inhibition: at 38.3 µM (top of the series) unless noted.
UniProt P43220, sequence (P43220 whole entry, looked up): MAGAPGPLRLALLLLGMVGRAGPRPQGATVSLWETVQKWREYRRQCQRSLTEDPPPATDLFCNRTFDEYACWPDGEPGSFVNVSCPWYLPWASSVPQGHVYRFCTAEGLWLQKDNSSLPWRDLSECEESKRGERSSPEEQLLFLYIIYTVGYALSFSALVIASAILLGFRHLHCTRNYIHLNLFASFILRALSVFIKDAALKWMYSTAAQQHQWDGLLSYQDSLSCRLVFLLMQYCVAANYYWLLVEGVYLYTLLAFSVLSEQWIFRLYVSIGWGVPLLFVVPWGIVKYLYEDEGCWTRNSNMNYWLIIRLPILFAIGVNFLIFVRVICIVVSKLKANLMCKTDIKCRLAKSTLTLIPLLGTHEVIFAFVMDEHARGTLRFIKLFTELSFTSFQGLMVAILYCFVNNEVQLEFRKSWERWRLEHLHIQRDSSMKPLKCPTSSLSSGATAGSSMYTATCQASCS
In short: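 Constitutively active GLP-1R drives a cAMP-responsive luciferase in stably transfected HEK293 cells; test compounds are added after overnight (12 h) attachment and left 24 hr, and signal loss in luminescence marks inhibition.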
In the case of `O=C(CNS(=O)(=O)c1ccc(Br)s1)Nc1ccc2c(c1)OCCO2`, the Potency is reported as inconclusive: 28.2 µM [inhibitor, single point]. For `O=[N+]([O-])c1ccc2nc(NS(=O)(=O)c3ccc(Cl)cc3)sc2c1`, the Potency was inconclusive: 28.2 µM [inhibitor, single point]. In the case of `COc1ccc(S(=O)(=O)N2CCC(O)(c3ccc(Cl)cc3)CC2)cc1OC`, the Potency is reported as inconclusive: 25.1 µM [inhibitor, single point]. `O=C(NCC(c1ccco1)N1CCc2ccccc21)C(=O)Nc1ccc(F)cc1F` (stereo not drawn) was tested, and the Potency was active: 3.98 µM. In the case of `C[C@@H]1CN([C@@H](C)CO)C(=O)CCCn2cc(nn2)CO[C@H]1CN(C)S(=O)(=O)c1ccc(-n2cccn2)cc1`, the Potency is reported as “inactive”. `CCCN1C2CCCC1CC(NC(=S)Nc1cc(C)cc(C)c1)C2` (stereo not drawn) was tested, and the Potency was inconclusive: 10 µM [inhibitor, partial curve, poor fit]. In the case of `COc1ccccc1C(=O)N1c2ccccc2C(C)(c2ccc(Cl)cc2)CC1(C)C` (stereo not drawn), the Potency is reported as inconclusive: 12.6 µM [inhibitor, partial curve, poor fit]. `COC(=O)C1=C(C)NC(C)=C([N+](=O)[O-])C1c1ccccc1C(F)(F)F` (stereo not drawn) was tested, and the Potency was inconclusive: 12.6 µM [inhibitor, partial curve, poor fit] and inconclusive: 11.2 µM [inhibitor, partial curve, poor fit]. With `COCCNC(=O)c1cc2c(s1)-c1ccc(Cl)cc1SC2` the Potency was inconclusive: 10 µM [inhibitor, partial curve, poor fit]. `COc1cc(/C=C/c2ccc(/C=C/c3cc(OC)c(OC)c(OC)c3)cc2)cc(OC)c1OC` was tested, and the Potency was inconclusive: 28.2 µM [inhibitor, single point]. `CCn1nnnc1-c1ccc(OC)c(S(=O)(=O)Nc2ccccc2OC)c1` was tested, and the Potency was “inactive”. For `Oc1c(Cl)cc(Cl)c2c1NCCC2`, the Potency was inconclusive: 10 µM [inhibitor, single point]. For `c1ccc(-c2nc3ccccc3[nH]2)cc1`, the Potency was inconclusive: 28.2 µM [inhibitor, single point]. For `CCn1nc(C)c(Br)c1-c1nc(CS(=O)(=O)c2ccc(F)cc2)no1`, the Potency was inconclusive: 12.6 µM [inhibitor, single point]. In the case of `CCn1cc(CN2CCC(C(=O)Nc3ccc(Oc4cccnc4)cc3)CC2)c(C)n1`, the Potency is reported as inconclusive: 28.2 µM [inhibitor, single point]. In the case of `CCC(=O)Nc1sc2c(c1C(=O)OC)CCN(Cc1ccccc1)C2`, the Potency is reported as inconclusive: 28.2 µM [inhibitor, single point]. In the case of `C=CCNc1nc2ccccc2nc1NS(=O)(=O)c1ccc(Br)cc1`, the Potency is reported as inconclusive: 3.55 µM [inhibitor, partial curve]. For `CN(C)c1ccc(-c2noc(C3CC(=O)N(c4ccc5c(c4)OCCO5)C3)n2)cc1` (stereo not drawn), the Potency was “inactive”. `O=C(Nc1ccc(Cl)cc1)c1cc2c(Cl)nc3ccccc3c2s1` was tested, and the Potency was “inactive”. In the case of `CN(C)S(=O)(=O)N1CCN(c2cc(Cl)ccc2Cl)CC1`, the activity change, negative = inhibition is reported as inconclusive: -34.7% [inhibitor]. With `O=C(Nc1ccc(S(=O)(=O)N2CCCCC2c2cccnc2)cc1)c1ccc(F)cc1` (stereo not drawn) the Potency was inconclusive: 28.2 µM [inhibitor, single point]. In the case of `Cc1ccc(CSc2ccc3nnc(-c4ccccn4)n3n2)cc1`, the activity change, negative = inhibition is reported as inactive: 0% [at 7.66 µM]. With `COc1ccc(CN(Cc2nc3ccccc3c(=O)[nH]2)C(=O)C(C)(C)C)cc1` the Potency was inconclusive: 10 µM [inhibitor, partial curve, poor fit]. With `CN(C)CCNC(C(=O)Nc1cccc(C(F)(F)F)c1)c1ccccc1` (stereo not drawn) the Potency was inconclusive: 11.2 µM [inhibitor, partial curve]. With `Cn1c(/C=N/NC(=O)c2ccccc2Br)nc2ccccc21` the Potency was “inactive”. For `Cn1c(-c2ccccc2)cnc1SCC(=O)N1CCCc2ccccc21`, the Potency was inconclusive: 11.2 µM [inhibitor, partial curve, poor fit]. For `COc1ccc(CCNS(=O)(=O)c2ccc(Br)cc2)cc1`, the Potency was inconclusive: 11.2 µM [inhibitor, single point]. `CC(=O)c1ccc(NC(=S)NC2CCCC(C)C2C)cc1` (stereo not drawn) was tested, and the Potency was inconclusive: 20 µM [inhibitor, single point]. `Cc1ccc(NC(=O)COc2ccc3c(c2)CCC3)nc1` was tested, and the Potency was “inactive”. For `Cc1[nH]nc2c1C(c1ccsc1C)C(C#N)=C(N)O2` (stereo not drawn), the Potency was “inactive”. In the case of `CC(=O)Nc1cccc(NC(=O)c2ccc3c(c2)CCN3S(=O)(=O)c2ccccc2)c1`, the Potency is reported as inconclusive: 12.6 µM [inhibitor, single point]. `CCc1ccc(S(=O)(=O)c2nnn3c2nc(NCc2cccc(OC)c2)c2cc(Cl)ccc23)cc1` was tested, and the Potency was “inactive”. `CCOC(=O)COc1cccc2c(=O)n(CC(=O)NCc3ccccc3)ccc12` was tested, and the Potency was “inactive”. For `O=C(Nc1cccc(-c2nc3ccccc3[nH]2)c1)c1ccccc1F`, the Potency was inconclusive: 5.62 µM [inhibitor, full curve, poor fit]. In the case of `c1ccc(COc2cccc(-c3cc4nc(NCc5cccs5)ccn4n3)c2)cc1`, the Potency is reported as active: 4.47 µM. `C/C(CCc1oc2c(Br)cc(Br)cc2c1-c1ccc(C)o1)=N\O` was tested, and the Potency was inconclusive: 28.2 µM [inhibitor, single point]. With `COc1ccccc1CCNC(=O)C(=O)NCC(c1cccs1)S(=O)(=O)c1ccc(F)cc1` (stereo not drawn) the Potency was inconclusive: 10 µM [inhibitor, single point]. `Nc1[nH]c(C(=O)c2ccccc2)c(-c2ccc(Cl)cc2)c1C(=O)NCCc1c[nH]c2ccccc12` was tested, and the Potency was inconclusive: 11.2 µM [inhibitor, partial curve, poor fit]. In the case of `Cc1cccc(C)c1OCC(=O)N1CC2(C)CC1CC(C)(C)C2` (stereo not drawn), the Potency is reported as inconclusive: 14.1 µM [inhibitor, partial curve, poor fit]. For `COC(=O)c1sc(NC(=O)c2ccc([N+](=O)[O-])o2)c(C#N)c1C`, the Potency was inconclusive: 1.41 µM [inhibitor, full curve, poor fit]. In the case of `CN(C)c1ccc(NC(=O)CSc2nc3ccccc3c(=O)n2C2CCCCC2)cc1`, the Potency is reported as inconclusive: 2.51 µM [inhibitor, partial curve, poor fit]. `Cc1cc(C)c(S(=O)(=O)c2ccccc2)c(N(C)C)n1` was tested, and the Potency was inconclusive: 8.91 µM [inhibitor, partial curve, poor fit]. For `CC(OC(=O)c1ccc(OCC2CCCO2)cc1)C(=O)N(C)Cc1ccccc1` (stereo not drawn), the Potency was inconclusive: 10 µM [inhibitor, single point]. For `CC(C)NC(=S)N/N=C/c1ccc2c(c1)OCCO2`, the Potency was inconclusive: 28.2 µM [inhibitor, single point]. `CCCCn1c(N)c(N(CCOC)C(=O)c2ccc(-c3cccc(C(F)(F)F)c3)o2)c(=O)[nH]c1=O` was tested, and the Potency was inconclusive: 31.6 µM [inhibitor, partial curve, poor fit]. For `Cc1ccc2nc(SCC(=O)Nc3cc(C(C)(C)C)nn3-c3ccccc3)[nH]c2c1`, the Potency was inconclusive: 12.6 µM [inhibitor, single point]. For `CN(Cc1ccccc1Br)C(=O)CN1C(=O)NC2(CCCCCC2)C1=O`, the Potency was inconclusive: 28.2 µM [inhibitor, single point]. For `Cn1cccc1/C=C1\CCC/C(=C\c2cccn2C)C1=O`, the Potency was inconclusive: 11.2 µM [inhibitor, single point]. For `CCCc1nn(C)c(C(=O)Nc2ccc(Cl)cc2)c1Cl`, the Potency was inconclusive: 7.94 µM [inhibitor, partial curve, poor fit]. With `Cc1cccc(NC(=S)N2CCN(c3ccccc3)CC2)c1` the Potency was inconclusive: 11.2 µM [inhibitor, partial curve, poor fit]. `CCCN(CCC)CC(O)COc1ccc([N+](=O)[O-])cc1` (stereo not drawn) was tested, and the Potency was “inactive”. `O=C(N/N=C/c1c(O)ccc2ccccc12)Nc1ccccc1` was tested, and the Potency was inconclusive: 28.2 µM [inhibitor, single point]. In the case of `Cc1cccc(S(=O)(=O)N(C)C[C@H]2OCc3cnnn3CCCC(=O)N([C@@H](C)CO)C[C@H]2C)c1`, the Potency is reported as “inactive”. For `O=C1CSc2ccc(C(=O)NCCc3ccc(Cl)cc3Cl)cc2N1`, the Potency was inconclusive: 12.6 µM [inhibitor, partial curve]. In the case of `CCN1C(=O)/C(=C\C=C2/C=CC=CN2CC)SC1=S`, the Potency is reported as inconclusive: 22.4 µM [inhibitor, single point]. `CCc1ccc(-c2nc(SCC(=O)NCC3CCCO3)c(-c3ccc(F)cc3)[nH]2)cc1` (stereo not drawn) was tested, and the Potency was inconclusive: 3.16 µM [inhibitor, single point]. With `COc1cccc(-c2cc(C(=O)Nc3c(C)nn(Cc4ccccc4)c3C)no2)c1` the Potency was inconclusive: 28.2 µM [inhibitor, single point]. For `CC(=O)N1CCOc2ccc(S(=O)(=O)NCc3ccc(Cl)cc3)cc21`, the Potency was inconclusive: 0.501 µM [inhibitor, full curve, poor fit]. With `N#Cc1ccc(NC(=O)c2cc(-c3cccc(Cl)c3)on2)cc1` the Potency was “inactive”. In the case of `Cc1ccc(CNC(=O)C2(C(F)(F)F)C/C(=C\Cc3ccccc3)CCCO2)o1` (stereo not drawn), the Potency is reported as inconclusive: 28.2 µM [inhibitor, single point]. `COc1ccc(C(=O)Nc2ccc(C3CC3(Cl)Cl)cc2)cc1` (stereo not drawn) was tested, and the Potency was inconclusive: 12.6 µM [inhibitor, single point]. `Cc1nc(-c2cccc(N)c2)cs1` was tested, and the Potency was inconclusive: 5.01 µM [inhibitor, partial curve, poor fit]. For `C/C(=N\OC(=O)Nc1ccc(Cl)cc1)c1ncc(C(F)(F)F)cc1N1CCOCC1`, the Potency was inconclusive: 28.2 µM [inhibitor, single point].
